In PubChem BioAssay (NCATS):
Inconclusive results, whose numbers are uncertain, are shown with a selection of clear calls. For some of these results: Potencies beside an inconclusive call are fits to weak or partial responses and may not hold up. The source made the active and inactive calls. Unless noted, the call rests on the fitted dose curve; in most records, active means well fitted curve in the direction sought with a large enough effect; inconclusive means small, poorly fitted or top-dose-only effect, or another doubt; inactive means no such curve, though single readings can be large; an effect the other way counts as inactive or inconclusive.

Tests used:
[1] = P-glycoprotein substrates identified in KB-8-5-11 adenocarcinoma cell line, qHTS therapeutic library screen (AID 1346987); further: nearly all actives have a fitted effect of over 65% in size
Summary of the method: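 P-gp-mediated resistance screen: KB-8-5-11 cells treated 72 h with compounds in dose-response. CellTiter-Glo viability.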

[2] = system: Zika virus NS2B-NS3 protease (linked construct); experiment: Primary screen NINDS Rhodamine qHTS for Zika virus inhibitors (AID 1347160); further: nearly all actives have a fitted effect of over 55% in size
Summary of the method: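 Kinetic fluorescence (Ex 480 nm, Em 540 nm) over 15 min with 1.5 microM Rhodamine110 peptide and 25 nM linked protease.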

[3] = Primary qHTS for inhibitors of nuclear receptor binding SET domain protein 2 (NSD2) in an isogenic RCH-ACV NSD2 p.E1099K mutant (9B) (AID 1645876); further: nearly all actives have a fitted effect of over 70% in size
[4] = Primary fluorescence-based thiol-reactive (MSTI) qHTS assay for identification of artifact compounds. (AID 1845221);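 further: thiol-reactive compounds lower the probe fluorescence signal; nearly all actives have a fitted effect of over 65% in size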
Summary of the method: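 Probe: MSTI 4 uM, PBS pH 7.4, 2% DMSO. Incubation 1 h, RT, light-protected. Readout fluorescence 525/598 nm.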

[5] = Primary redox qHTS assay for identification of artifact compounds. (AID 1845223)
Summary of the method: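 Amplex Red (25 uM) and HRP (250 mU/mL) in HBSS, with compounds for 15 min, then 250 uM DTT for 30 min, room temperature, dark. Fluorescence 525/598 nm read; normalized to DMSO and 10 uM DA3003; Hill fit.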

HEK293 = experiment: Cytotoxic Profiling of Annotated Libraries Using Quantitative High-Throughput Screening (AID 1296008); conditions: Five cell lines viability, CellTiter-Glo ATP luminescence, 48-72 h; max response: hits give low values; further: nearly all actives have a fitted effect of over 60% in size
Summary of the method: (§1)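 Cells exposed to compounds for 48 or 72 hr at 37 degrees Celsius. Viability read as ATP-coupled luminescence with CellTiter-Glo after 10 min at room temperature.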

KB-3-1 = experiment: as above; conditions: Five cell lines viability, CellTiter-Glo ATP luminescence, 48-72 h; max response: hits give low values
Summary of the method: as §1

JEG-3 = experiment: Primary qHTS to identify gynecologic anti-cancer compounds using libraries of approved drugs and bioactive compounds (AID 1345084); conditions: Gynecologic cancer cell panel viability, ATPlite luminescence, 48 h; series mostly up to 57.5 µM; further: nearly all actives have a fitted effect of over 55% in size; on activity change, negative = cytotoxicity: on the % scale 0 is the no-effect control and ±100 the full control effect
Summary of the method: (§2)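 Cell viability after 48 h drug treatment, ATPlite luminescence readout; five doses.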

[6] = system: Zika virus NS2B-NS3 protease (unlinked complex); experiment: Primary screen GU Rhodamine qHTS for Zika virus inhibitors: Unlinked NS2B-NS3 protease assay (AID 1347159); further: nearly all actives have a fitted effect of over 60% in size
Summary of the method: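 A qHTS format was used, with compound concentrations ranging up to 114 microM. Each compound was preincubated with 25 nM NS2B-NS3 protease, and the substrate was then added at 1.5 microM. Curves were fitted with a 4-parameter Hill model.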

PA-1 = experiment: Primary qHTS to identify gynecologic anti-cancer compounds using libraries of approved drugs and bioactive compounds (AID 1345084); conditions: Gynecologic cancer cell panel viability, ATPlite luminescence, 48 h; series mostly up to 57.5 µM; further: nearly all actives have a fitted effect of over 55% in size; on activity change, negative = cytotoxicity: on the % scale 0 is the no-effect control and ±100 the full control effect
Summary of the method: as §2

SKOV3 = experiment: as above; conditions: Gynecologic cancer cell panel viability, ATPlite luminescence, 48 h; series mostly up to 57.5 µM
Summary of the method: as §2

Tov-21-G = experiment: as above; conditions: Gynecologic cancer cell panel viability, ATPlite luminescence, 48 h; activity change, negative = cytotoxicity: at 57.5 µM (top of the series)
Summary of the method: as §2

[7] = Primary qHTS for inhibitors of nuclear receptor binding SET domain protein 2 (NSD2) in an RCH-ACV wild type WT cells (2C) (AID 1645877); conditions: activity change, negative = cell killing: at 44.9 µM (top of the series); further: nearly all actives have a fitted effect of over 70% in size
OV90 = experiment: Primary qHTS to identify gynecologic anti-cancer compounds using libraries of approved drugs and bioactive compounds (AID 1345084); conditions: Gynecologic cancer cell panel viability, ATPlite luminescence, 48 h; series mostly up to 57.5 µM; further: nearly all actives have a fitted effect of over 55% in size; on activity change, negative = cytotoxicity: on the % scale 0 is the no-effect control and ±100 the full control effect
Summary of the method: as §2

[8] = target: Cytochrome P450 2D6 (Homo sapiens) (UniProt P10635); experiment: Cytochrome P450 family 2 subfamily D member 6 (CYP2D6) small molecule antagonists: luciferase biochemical (cell-free) qHTS assay (AID 1645840; active means well fitted curve in the direction sought with a large enough effect in the repeat runs; inconclusive means weak or mixed curves; inactive means no such curve, though single readings can be large; an effect the other way counts as inactive or inconclusive; further: nearly all actives have a fitted effect of over 55% in size)
Sequence of UniProt P10635 (P10635 whole entry, looked up): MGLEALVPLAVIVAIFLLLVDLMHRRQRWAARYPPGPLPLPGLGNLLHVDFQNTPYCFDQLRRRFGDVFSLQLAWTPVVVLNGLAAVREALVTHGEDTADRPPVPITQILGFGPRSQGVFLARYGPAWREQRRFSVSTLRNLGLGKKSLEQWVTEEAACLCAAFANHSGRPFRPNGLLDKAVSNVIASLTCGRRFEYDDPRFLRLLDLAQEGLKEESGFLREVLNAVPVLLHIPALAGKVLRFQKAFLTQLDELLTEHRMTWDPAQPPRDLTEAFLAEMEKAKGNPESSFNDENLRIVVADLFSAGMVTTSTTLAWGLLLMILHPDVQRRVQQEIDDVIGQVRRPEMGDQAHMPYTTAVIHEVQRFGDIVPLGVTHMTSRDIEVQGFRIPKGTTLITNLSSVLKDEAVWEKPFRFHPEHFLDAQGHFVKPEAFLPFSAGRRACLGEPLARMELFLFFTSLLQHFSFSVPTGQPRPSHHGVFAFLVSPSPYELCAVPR
Summary of the method: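 P450-Glo luminescent screen: recombinant CYP2D6 enzyme–proluciferin substrate mix preincubated with compound 10 min at room temperature, then NADPH regeneration added for 1 h at room temperature. Detection reagent added for 20 min; luciferin light read as relative luminescence units.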

NIH3T3 = experiment: Cytotoxic Profiling of Annotated Libraries Using Quantitative High-Throughput Screening (AID 1296008); conditions: Five cell lines viability, CellTiter-Glo ATP luminescence, 48-72 h; max response: hits give low values; further: nearly all actives have a fitted effect of over 60% in size
Summary of the method: as §1

CASKI = experiment: Primary qHTS to identify gynecologic anti-cancer compounds using libraries of approved drugs and bioactive compounds (AID 1345084); conditions: Gynecologic cancer cell panel viability, ATPlite luminescence, 48 h; activity change, negative = cytotoxicity: at 57.5 µM (top of the series); further: nearly all actives have a fitted effect of over 55% in size; on activity change, negative = cytotoxicity: on the % scale 0 is the no-effect control and ±100 the full control effect
Summary of the method: as §2
Potency means the concentration at half of the fitted maximal effect; tags describe the fitted curve by direction and shape.

With `COc1cc(CCc2ccc(OCC=C(C)C)cc2)cc(OC)c1OC` as the molecule, how does the Potency [1] read?
Its Potency is inconclusive: 20.2 µM [inhibitor, partial curve, poor fit].

What about the Potency [2] of the same molecule?
Its Potency is inconclusive: 14.1 µM [inhibitor, single point].

What about the Potency [3] of the same molecule?
Its Potency is inconclusive: 12.7 µM [inhibitor, partial curve, poor fit].

And the Potency [4]?
The Potency was inconclusive: 26.1 µM [inhibitor, single point].

What about the Potency [5] of the same molecule?
The Potency was inconclusive: 26.1 µM [activator, partial curve, poor fit].

What about the Potency (HEK293) of the same molecule?
Its Potency is inconclusive: 20.2 µM [inhibitor, single point].

What about the Potency (KB-3-1) of the same molecule?
The Potency was inconclusive: 16.1 µM [inhibitor, partial curve, poor fit].

What about the Potency (JEG-3) of the same molecule?
The Potency was “inactive”.

For `CC(=O)O[C@]1(C(C)=O)CC[C@H]2[C@@H]3CCC4=CC(=O)CCC4=C3[C@@H](c3ccc(N(C)C)cc3)C[C@@]21C`, which Potency [1] is on record?
The Potency was inconclusive: 8.2 µM [inhibitor, partial curve].

And the Potency [6]?
Its Potency is inconclusive: 50.1 µM [inhibitor, partial curve, poor fit].

What about the Potency [2] of the same molecule?
Its Potency is inconclusive: 39.8 µM [inhibitor, single point].

What about the Potency [4] of the same molecule?
Its Potency is inconclusive: 0.752 µM [inhibitor, full curve].

And the Potency (HEK293)?
The Potency was inconclusive: 29.1 µM [inhibitor, single point].

And the max response (KB-3-1)?
The max response was inactive: -14.7%.

What about the Potency (PA-1) of the same molecule?
The Potency was “inactive”.

What about the Potency (SKOV3) of the same molecule?
The Potency was “inactive”.

And the Potency (Tov-21-G)?
Its Potency is “inactive”.

With `COc1c(C(C)C)c(O)c(O)c2c1C(OC)[C@H]1OC(=O)[C@@]23CCCC(C)(C)[C@H]13` (some centres undefined) as the molecule, how does the Potency [1] read?
The Potency was “inactive”.

And the Potency [3]?
Its Potency is inconclusive: 20.1 µM [inhibitor, single point].

And the Potency [7]?
The Potency was inconclusive: 20.1 µM [inhibitor, single point].

And the Potency [5]?
The Potency was inconclusive: 16.5 µM [activator, single point].

What about the Potency (HEK293) of the same molecule?
Its Potency is inconclusive: 20.2 µM [inhibitor, single point].

What about the outcome (KB-3-1) of the same molecule?
Its outcome is “inactive”.

With `c1cc(-c2cnn3cc(-c4ccc(N5CCNCC5)cc4)cnc23)c2cccnc2c1` as the molecule, how does the Potency [1] read?
The Potency was active: 5.17 µM.

And the Potency [6]?
Its Potency is inconclusive: 79.4 µM [inhibitor, partial curve, poor fit].

What about the Potency (HEK293) of the same molecule?
The Potency was inconclusive: 16.4 µM [inhibitor, single point].

What about the Potency (KB-3-1) of the same molecule?
The Potency was active: 4.11 µM.

Which Potency [1] does the source give for `C#CCNCc1cc2cc(OCc3ccccc3)ccc2[nH]1` here?
The Potency was inconclusive: 32.6 µM [inhibitor, partial curve, poor fit].

And the Potency [4]?
The Potency was inconclusive: 8.44 µM [inhibitor, partial curve, poor fit].

And the Potency (HEK293)?
Its Potency is inconclusive: 29.1 µM [inhibitor, single point].

And the Potency (KB-3-1)?
Its Potency is inconclusive: 32.6 µM [inhibitor, partial curve, poor fit].

Which activity change, negative = inhibition [6] does the source give for `C[C@@H]1O[C@@H](O[C@H]2[C@@H](OC(=O)[C@]34CCC(C)(C)CC3C3=CCC5[C@@]6(C)C[C@H](O)[C@H](O[C@@H]7O[C@H](CO)[C@@H](O)[C@H](O)[C@H]7O[C@@H]7OC[C@@H](O)[C@H](O)[C@H]7O)[C@@](C)(C(=O)O)C6CC[C@@]5(C)[C@]3(C)CC4)OC[C@H](O)[C@@H]2O)[C@H](O)[C@H](O)[C@H]1O[C@@H]1OC[C@@H](O)[C@H](O)[C@H]1O` (some centres undefined) here?
Its activity change, negative = inhibition is inactive: 46.4% [at 19.1 µM].

And the Potency (HEK293)?
Its Potency is inconclusive: 3.89 µM [inhibitor, single point].

What about the Potency (KB-3-1) of the same molecule?
The Potency was active: 2.45 µM.

What about the Potency (JEG-3) of the same molecule?
Its Potency is inconclusive: 3.98 µM [rising, single point].

And the Potency (OV90)?
The Potency was inconclusive: 3.98 µM [cytotoxic, single point].

And the activity change, negative = cytotoxicity (SKOV3)?
The activity change, negative = cytotoxicity was inactive: -18.3% [at 6.55 µM].

Which results are given for `O=C(NCc1ccc(OC(F)(F)F)cc1)C1c2c(F)cccc2C(=O)N1CCc1ccccn1` (centres undefined)?
Potency [1]: inactive; Potency [8]: active: 10.7 µM; Potency [3]: inconclusive: 18.3 µM [inhibitor, partial curve, poor fit]; Potency [7]: inconclusive: 20.5 µM [inhibitor, single point]; Potency [4]: inactive; Potency [5]: inactive; Potency (HEK293): inconclusive: 23.1 µM [inhibitor, single point]; max response (KB-3-1): inactive: 4.96%

With `CC1(C)C(O)CCC2(C)C1C(O)C=C1COC(=O)C12O` (centres undefined) as the molecule, how does the Potency [4] read?
The Potency was inconclusive: 16.8 µM [inhibitor, partial curve].

What about the outcome (HEK293) of the same molecule?
The outcome was “inactive”.

What about the max response (KB-3-1) of the same molecule?
The max response was inactive: 5.78%.

What about the Potency (SKOV3) of the same molecule?
The Potency was “inactive”.

For `CCCc1ccc(OCC(=O)N2CCN(C(=O)COc3ccc(CCC)cc3OC)CC2)c(OC)c1`, which Potency [3] is on record?
Its Potency is “inactive”.

And the Potency (HEK293)?
Its Potency is inconclusive: 5.96 µM [inhibitor, partial curve, poor fit].

What about the max response (NIH3T3) of the same molecule?
Its max response is inactive: 0.399%.

What about the Potency (CASKI) of the same molecule?
Its Potency is “inactive”.

What about the Potency (JEG-3) of the same molecule?
The Potency was “inactive”.

And the Potency (OV90)?
Its Potency is “inactive”.

For `COC(=O)C1=COC(OC2OC(CO)C(O)C(O)C2O)C2C(C)C(OC(=O)/C=C/c3ccc(O)cc3)C(O)C12` (centres undefined), which Potency [4] is on record?
Its Potency is active: 11.6 µM.

And the Potency [5]?
Its Potency is inconclusive: 10.3 µM [activator, partial curve, poor fit].

And the max response (HEK293)?
The max response was inactive: -0.112%.

What about the max response (KB-3-1) of the same molecule?
Its max response is inactive: 1.09%.

Which Potency [3] does the source give for `O=C1C(CCS(=O)c2ccccc2)C(=O)N(c2ccccc2)N1c1ccccc1` (centres undefined) here?
The Potency was inconclusive: 29.9 µM [inhibitor, single point].

And the Potency [7]?
The Potency was inconclusive: 29.9 µM [inhibitor, single point].

And the max response (HEK293)?
Its max response is inactive: -3.91%.

And the max response (NIH3T3)?
The max response was inactive: -2.37%.

And the Potency (SKOV3)?
Its Potency is inconclusive: 3.16 µM [rising, partial curve, poor fit].
